The campaign covered roughly 380,000 compounds. About 170 (0.045%) were called active. Inconclusive results, whose numbers are uncertain, are shown with a selection of clear calls. Calls follow the shape of the dose curve; as a rule, active = well fitted inhibition curve with a large enough effect; inconclusive = small, poorly fitted or top-dose-only effect; inactive = no such curve, though single readings can be large or run the other way. Potencies of inconclusive entries are left out as doubtful fits.
Each compound was assayed against Phosphoglycerate kinase, glycosomal (Trypanosoma brucei brucei) (UniProt P07378) (assay: qHTS Assay to Find Inhibitors of Phosphoglycerate Kinase). Settings: PGK/GAPDH coupled, Kinase-Glo luminescence, 60 min; series mostly up to 57.5 µM; activity change, negative = inhibition: at the top concentration.
Text: Several species of the Trypanosomatidae family of parasitic protozoans cause a spectrum of diseases throughout the tropical and subtropical world. Sleeping sickness, caused by two subspecies of Trypanosoma brucei, is endemic to areas of sub-Saharan Africa, while Chagas disease, a manifestation of Trypanosoma cruzi infection, is prevalent throughout Central and South America. In addition, many species of Leishmania are responsible for a range of cutaneous and visceral diseases, causing ulcers, destructive lesions and kalaazar, a lethal infection of the viscera. Collectively, these organisms infect 30 million people worldwide (~500 million live in endemic areas), and account for ~130,000 deaths annually. Given their debilitating and prevalent nature, trypanosomatid parasites impose a heavy medical, economic and social burden on entire populations, primarily in the developing world. The problem is further exacerbated by the fact that existing treatments have progressed little in the past 50 years, and current drugs show high toxicity and poor efficacy. […] Blood-stream stages of T. brucei are entirely dependent on glycolysis as a source of ATP, and the tricarboxylic acid cycle and oxidative phosphorylation are both repressed. Glycolysis in axenically cultured T. cruzi, representing the intracellular pathogenic stage, is also essential for these parasites. […] Previous studies have shown that the glycolytic enzyme, phosphoglycerate kinase (PGK), is a viable target for drugs to kill these parasites. […] NIH Molecular Libraries Probe Production Network [MLPCN] NIH Chemical Genomics Center [NCGC] MLPCN Grant: R03 MH093212 PI Name: Malcolm Walkinshaw, University of Edinburgh
3ul of substrate/PGK buffer (columns 1,2,5-48) are dispensed into Greiner white solid bottom 1536-well assay plates; columns 3-4 receive only TEA buffer as 0x PGK controls. Compounds are then transferred via Kalypsys pin tool equipped with 1536-pin array (10nl slotted pins, V&P Scientific, San Diego, CA). Following addition of compound, 1ul of GAPDH (100nM final concentration, all columns) is added to initiate the reaction (this upstream coupling enzyme is necessary for in-well production of PGK substrate, 1,3-bisphosphoglycerate (1,3-BPG), which is unstable and not commercially available). The plates are then incubated at room temperature for 60 minutes. Kinase-Glo Plus reagent is added (2ul) and plates incubated for 10 minutes, before being transferred to a ViewLux high-throughput CCD imager (PerkinElmer) wherein single end-point measurements of luminescence are acquired using a clear filter. All reagents are diluted in an assay buffer consisting of 100mM TEA (pH 7.6), 5mM MgCl2 and 0.01% Tween-20.
For Cc1ccc(NC(=O)CN2C(=O)S/C(=C\c3cc(Cl)c(OCC(=O)O)c(Cl)c3)C2=O)cc1, the Potency was inconclusive [inhibitor, full curve, poor fit]. Cc1cc(NC(=O)COC(=O)CSCc2ccc(Cl)c(Cl)c2)no1 was tested, and the “activity change, negative = inhibition” value was inactive: -4.56%. In the case of COc1ccc2nc(N3CCN(C(=O)c4ccco4)CC3)sc2c1, the Potency was inconclusive [inhibitor, partial curve, poor fit]. For CC(NC(=O)COc1ccccc1)C(c1ccccc1)N1CCN(C)CC1 (centres undefined), the Potency was inconclusive [inhibitor, single point]. For O=Cc1ccc2oc3nc4n(c(=O)c3c(=O)c2c1)CCCS4, the Potency was inconclusive [inhibitor, single point]. In the case of Cc1cc(NC(=O)Cc2cccs2)no1, the Potency was inconclusive [inhibitor, single point]. In the case of COc1ccc(/C=N/Nc2nccnc2Cl)c(OC)c1, the Potency was inconclusive [inhibitor, partial curve, poor fit]. In the case of Clc1ccc(-c2nc3ncccn3c2Cl)cc1, the “activity change, negative = inhibition” value was inactive: -6.99%. For C(=N\Nc1nc2ccccc2[nH]1)/c1ccccn1, the Potency was inconclusive [inhibitor, partial curve, poor fit]. Cc1occc1C(=O)N/N=C/c1ccc2c(c1)OCO2 was tested, and the Potency was inconclusive [inhibitor, partial curve, poor fit]. Oc1cccc(Nc2c3ccccc3nc3ccccc23)c1 was tested, and the “activity change, negative = inhibition” value was inactive: -1.61%. For Cn1c(C(=O)NC2CCCCC2)cc2sccc21, the Potency was inconclusive [inhibitor, partial curve, poor fit]. With O=C(/C=C/c1ccco1)NCC1OCCc2ccccc21 (centres undefined) the Potency was inconclusive [inhibitor, single point]. With CC(=O)C1=C(c2ccc(Cl)c(Cl)c2)N(C(C)=O)n2c(C)nnc2S1 the “activity change, negative = inhibition” value was inactive: -14.3%. In the case of O=C(O)C1=C(C(=O)O)C2CCC1C2, the Potency was inconclusive [inhibitor, partial curve, poor fit]. CCCc1nc2sc3c(SCC(=O)NCc4ccco4)ncnc3c2c2c1CCC2 was tested, and the Potency was inconclusive [inhibitor, partial curve, poor fit]. With N#Cc1c(-c2ccc(F)cc2)cc(-c2cccnc2)nc1N the “activity change, negative = inhibition” value was inactive: -2.34%. For O=c1[nH]c(/C=C/c2cccc([N+](=O)[O-])c2)c([N+](=O)[O-])c(=O)[nH]1, the “activity change, negative = inhibition” value was inactive: -3.49%. In the case of CC(NC(=O)COC(=O)/C=C/c1ccco1)c1ccccc1 (centres undefined), the Potency was inconclusive [inhibitor, single point]. Nc1cc(S(=O)(=O)O)cc([N+](=O)[O-])c1O was tested, and the Potency was inconclusive [inhibitor, partial curve, poor fit]. In the case of O=C(CCNS(=O)(=O)c1ccc(Br)cc1)NCCc1ccc(Cl)cc1, the “activity change, negative = inhibition” value was inactive: -9.2%. C=CCn1c(SCC(=O)c2ccc(O)c(O)c2)nnc1-c1cccc(C)c1 was tested, and the Potency was inconclusive [inhibitor, partial curve, poor fit]. With COc1cc(N(C)C)ccc1C=c1c2ccccc2n2c1cc(-c1ccccc1)[n+]2C the Potency was inconclusive [inhibitor, partial curve, poor fit]. CCC(C)[C@H]1CNCCN1CCc1cccc2ccccc12 (some centres undefined) was tested, and the Potency was inconclusive [inhibitor, partial curve, poor fit]. O=[N+]([O-])c1cccc(-c2n[nH]c(=S)n2-c2ccc(Br)cc2)c1 was tested, and the “activity change, negative = inhibition” value was inactive: -3.91%. In the case of Cc1ccccc1C(=O)Nc1nnc(SCC(=O)NCc2ccco2)s1, the “activity change, negative = inhibition” value was inactive: 0.734%. CC1Cc2ccccc2N1C(=O)CSc1nnc(-c2ccc(S(=O)(=O)N3CCOCC3)cc2)n1C (centres undefined) was tested, and the “activity change, negative = inhibition” value was inactive: 5.19%. With CCOC(=O)c1c(C)[nH]c(C(=O)NNC(=O)c2ccccc2)c1C the “activity change, negative = inhibition” value was inactive: 4.94%. In the case of COC(=O)c1ccccc1NC(=O)CCn1c(=O)c2cccn2c2cccnc21, the “activity change, negative = inhibition” value was inactive: -5.07%. In the case of Clc1ncnc2[nH]ccc12, the “activity change, negative = inhibition” value was inactive: 0.732%. CC1(C)SC(=S)N(/N=C/c2ccc(O)cc2)C1N(O)C(=O)Nc1ccc([N+](=O)[O-])cc1 (centres undefined) was tested, and the “activity change, negative = inhibition” value was inactive: -2.7%. For Cc1cc(C(F)F)nn1CC(=O)NC1C(=O)N2C(C(=O)O)=C(CSc3nnnn3C)CSC12 (centres undefined), the Potency was inconclusive [inhibitor, partial curve, poor fit]. With CCN(CCCNc1cc2c(c(N)c1S(=O)(=O)O)C(=O)c1ccccc1C2=O)c1ccccc1 the Potency was inconclusive [inhibitor, partial curve, poor fit]. For Cc1ccc(Cl)cc1NC(=S)N(CCCN1CCOCC1)Cc1ccco1, the Potency was inconclusive [inhibitor, single point].
% is scaled to controls: 0 for no effect and ±100 for the full control effect; potency is read from the fitted curve at half-maximal effect; tags tell the direction and shape of the fitted curve.
Also: nearly all actives have a fitted effect of over 60% in size.
